A lower IC50 marks a more sensitive line; a limit (>, <) means that the fit lies beyond the doses tested. AUC, from the same fit, is the share of area under the viability curve across the 256-fold dose range; values near 1 show little effect.
Compound: N#CC[C@H](C1CCCC1)n1cc(-c2ncnc3[nH]ccc23)cn1 [Ruxolitinib]
Experiment: Viability of human cancer cell lines after 72 h of drug (GDSC screen)
Experimental: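 Human cancer cell lines in 384-well plates, medium with 10% serum, drug for 72 h over a 256-fold dose range (nine 2-fold or five 4-fold steps up to the top dose). Adherent lines were fixed and stained with the nucleic acid dye Syto60, suspension lines read with resazurin; signal relative to control wells, capped at 0 and 100%. One two-parameter sigmoid per drug and line, fitted in a mixed model over all curves with the slope shared within a line.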

| Cell Line | AUC | IC50 |
| --- | --- | --- |
| EW-7 (Ewing sarcoma, semi-adherent, top dose 5.24 µM) | 0.99 | > 5.24 µM |
| SBC-5 (small cell lung carcinoma, adherent, top dose 5.24 µM) | 0.992 | > 5.24 µM |
| HOP-62 (lung adenocarcinoma, adherent, top dose 5.24 µM) | 0.972 | > 5.24 µM |
| SW626 (ovary, adherent, top dose 5.24 µM) | 0.983 | > 5.24 µM |
| NCI-H3122 (lung adenocarcinoma, adherent, top dose 5.24 µM) | 0.951 | > 5.24 µM |
| EVSA-T (breast, adherent, top dose 5.24 µM) | 0.991 | > 5.24 µM |
| SW1783 (glioma, adherent, top dose 5.24 µM) | 0.99 | > 5.24 µM |
| LS-180 (large intestine, adherent, top dose 5.24 µM) | 0.985 | > 5.24 µM |
| MZ7-mel (melanoma, adherent, top dose 5.24 µM) | 0.986 | > 5.24 µM |
| MONO-MAC-6 (acute myeloid leukaemia, suspension, top dose 5.24 µM) | 0.911 | > 5.24 µM |
| RCC-FG2 (kidney, adherent, top dose 5.24 µM) | 0.979 | > 5.24 µM |
| SK-MES-1 (lung squamous cell carcinoma, adherent, top dose 5.24 µM) | 0.979 | > 5.24 µM |
| Raji (Burkitt lymphoma, suspension, top dose 5.24 µM) | 0.99 | > 5.24 µM |
| MDA-MB-415 (breast, adherent, top dose 5.24 µM) | 0.982 | > 5.24 µM |
| NCI-H2122 (lung adenocarcinoma, adherent, top dose 5.24 µM) | 0.989 | > 5.24 µM |
| SNU-61 (large intestine, adherent, top dose 5.24 µM) | 0.985 | > 5.24 µM |
| IM-95 (stomach, adherent, top dose 5.24 µM) | 0.984 | > 5.24 µM |
| NB-4 (acute myeloid leukaemia, suspension, top dose 5.24 µM) | 0.935 | > 5.24 µM |
| IA-LM (large cell lung carcinoma, adherent, top dose 5.24 µM) | 0.981 | > 5.24 µM |
| NCI-H322M (lung adenocarcinoma, suspension, top dose 5.24 µM) | 0.984 | > 5.24 µM |
| EW-13 (Ewing sarcoma, suspension, top dose 5.24 µM) | 0.979 | > 5.24 µM |
| TE-9 (oesophagus, adherent, top dose 5.24 µM) | 0.987 | > 5.24 µM |
| OAW-42 (ovary, adherent, top dose 5.24 µM) | 0.983 | > 5.24 µM |
| WM793B (melanoma, adherent, top dose 5.24 µM) | 0.967 | > 5.24 µM |
| KYSE-220 (oesophagus, adherent, top dose 5.24 µM) | 0.98 | > 5.24 µM |
| EM-2 (chronic myeloid leukaemia, suspension, top dose 5.24 µM) | 0.974 | > 5.24 µM |

| Cell Line | AUC | IC50 |
| --- | --- | --- |
| SU-DHL-4 (B-cell lymphoma, suspension, top dose 5.24 µM) | 0.997 | > 5.24 µM |
| JSC-1 (B-cell lymphoma, suspension, top dose 5.24 µM) | 0.78 | 2.13 µM |
| NCI-H838 (lung adenocarcinoma, adherent, top dose 5.24 µM) | 0.987 | > 5.24 µM |
| UACC-893 (breast, adherent, top dose 5.24 µM) | 0.981 | > 5.24 µM |
| 5637 (bladder, adherent, top dose 5.24 µM) | 0.989 | > 5.24 µM |
| H2722 (mesothelioma, adherent, top dose 5.24 µM) | 0.975 | > 5.24 µM |
| CL-11 (large intestine, adherent, top dose 5.24 µM) | 0.986 | > 5.24 µM |
| ESO51 (oesophagus, semi-adherent, top dose 5.24 µM) | 0.979 | > 5.24 µM |
| VAL (B-cell lymphoma, suspension, top dose 5.24 µM) | 0.964 | > 5.24 µM |
| LB831-BLC (bladder, adherent, top dose 5.24 µM) | 0.987 | > 5.24 µM |
| HO-1-N-1 (head and neck, adherent, top dose 5.24 µM) | 0.987 | > 5.24 µM |
| LN-229 (glioma, adherent, top dose 5.24 µM) | 0.988 | > 5.24 µM |
| NCI-H522 (lung adenocarcinoma, adherent, top dose 5.24 µM) | 0.979 | > 5.24 µM |
| COR-L88 (small cell lung carcinoma, adherent, top dose 5.24 µM) | 0.986 | > 5.24 µM |
| OSC-20 (head and neck, adherent, top dose 5.24 µM) | 0.983 | > 5.24 µM |
| Daoy (medulloblastoma, adherent, top dose 5.24 µM) | 0.988 | > 5.24 µM |
| SK-N-FI (neuroblastoma, adherent, top dose 5.24 µM) | 0.978 | > 5.24 µM |
| TE-5 (oesophagus, adherent, top dose 5.24 µM) | 0.983 | > 5.24 µM |
| DSH1 (bladder, adherent, top dose 5.24 µM) | 0.989 | > 5.24 µM |
| HCC1954 (breast, adherent, top dose 5.24 µM) | 0.983 | > 5.24 µM |
| NCI-H1436 (small cell lung carcinoma, suspension, top dose 5.24 µM) | 0.985 | > 5.24 µM |
| SNU-C1 (large intestine, suspension, top dose 5.24 µM) | 0.952 | > 5.24 µM |
| EFM-19 (breast, adherent, top dose 5.24 µM) | 0.956 | > 5.24 µM |
| EB2 (Burkitt lymphoma, suspension, top dose 5.24 µM) | 0.963 | > 5.24 µM |
| JHH-2 (liver, adherent, top dose 5.24 µM) | 0.986 | > 5.24 µM |
| NOMO-1 (acute myeloid leukaemia, suspension, top dose 5.24 µM) | 0.979 | > 5.24 µM |

| Cell Line | AUC | IC50 |
| --- | --- | --- |
| AN3-CA (endometrium, adherent, top dose 5.24 µM) | 0.984 | > 5.24 µM |
| DU-4475 (breast, suspension, top dose 5.24 µM) | 0.992 | > 5.24 µM |
| HCC-33 (small cell lung carcinoma, adherent, top dose 5.24 µM) | 0.981 | > 5.24 µM |
| LU-134-A (small cell lung carcinoma, suspension, top dose 5.24 µM) | 0.985 | > 5.24 µM |
| MC-IXC (neuroblastoma, adherent, top dose 5.24 µM) | 0.996 | > 5.24 µM |
| EFM-192A (breast, adherent, top dose 5.24 µM) | 0.976 | > 5.24 µM |
| TGBC1TKB (biliary tract, adherent, top dose 5.24 µM) | 0.988 | > 5.24 µM |
| KINGS-1 (glioma, adherent, top dose 5.24 µM) | 0.979 | > 5.24 µM |
| LU-139 (small cell lung carcinoma, suspension, top dose 5.24 µM) | 0.935 | > 5.24 µM |
| SCC-25 (head and neck, adherent, top dose 5.24 µM) | 0.984 | > 5.24 µM |
| BC-1 (B-cell lymphoma, suspension, top dose 5.24 µM) | 0.933 | > 5.24 µM |
| TCCSUP (bladder, adherent, top dose 5.24 µM) | 0.985 | > 5.24 µM |
| RPMI-8226 (myeloma, suspension, top dose 5.24 µM) | 0.99 | > 5.24 µM |
| BV-173 (chronic myeloid leukaemia, suspension, top dose 5.24 µM) | 0.976 | > 5.24 µM |
| HT-1080 (fibrosarcoma, adherent, top dose 5.24 µM) | 0.989 | > 5.24 µM |
| BEN (non-small cell lung carcinoma, adherent, top dose 5.24 µM) | 0.983 | > 5.24 µM |
| HCC1806 (breast, adherent, top dose 5.24 µM) | 0.989 | > 5.24 µM |
| SW900 (lung squamous cell carcinoma, adherent, top dose 5.24 µM) | 0.984 | > 5.24 µM |
| SNU-C2B (large intestine, adherent, top dose 5.24 µM) | 0.976 | > 5.24 µM |
| KP-3 (pancreas, adherent, top dose 5.24 µM) | 0.981 | > 5.24 µM |
| SW1417 (large intestine, adherent, top dose 5.24 µM) | 0.984 | > 5.24 µM |
| A3-KAW (B-cell lymphoma, suspension, top dose 5.24 µM) | 0.192 | 0.0518 µM |
| NCI-H1770 (non-small cell lung carcinoma, suspension, top dose 5.24 µM) | 0.992 | > 5.24 µM |
| COLO-679 (melanoma, adherent, top dose 5.24 µM) | 0.985 | > 5.24 µM |
| STS-0421 (soft tissue, adherent, top dose 5.24 µM) | 0.958 | > 5.24 µM |
| EN (endometrium, adherent, top dose 5.24 µM) | 0.976 | > 5.24 µM |
